Here are results for 48 compounds from PubChem BioAssay AID1508642 (National Center for Advancing Translational Sciences (NCATS), 2021).

Among all 43,000 compounds or so, about 200 (0.47%) were called active. About 12% were inconclusive and are not listed. Calls follow the shape of the dose curve; as a rule, active = well fitted cell-killing curve with a large enough effect; inconclusive = small, poorly fitted or top-dose-only effect, or effect the other way; inactive = flat fitted curve, though single readings scatter. The list shows a part of the results.
% is scaled to controls: 0 for no effect and ±100 for the full control effect; potency is read from the fitted curve at half-maximal effect.

This test in a line: Cell viability qHTS assay in S16 Pmp22-F2sN cells. Also: nearly all actives have a fitted effect of over 65% in size. Particulars: S16 Pmp22-F2sN Schwann cells viability, CellTiter-Glo, 24 h; series mostly up to 57.5 µM; activity change, negative = cytotoxicity: at the top concentration. A digest of the protocol: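 S16 Pmp22-F2sN Schwann cells (500-1,000/well) in phenol-red-free DMEM with 10% FBS received 23 nL compound by pin tool for 24 h at 37 °C. Viability was then read as CellTiter-Glo luminescence after 15 min at room temperature.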
A general note: In qHTS, concentration-response curves come from the screen itself.
In the case of `CCN1CCN(C(=O)Cn2ncc3c4ccccc4n(Cc4ccccc4F)c3c2=O)CC1`, the “activity change, negative = cytotoxicity” value was inactive: -2.35%.

Turning to `Cc1cccc(N2CCN(C(c3ccc(F)cc3)c3nnc(-c4ccccc4)o3)CC2)c1C` (stereo not drawn), the “activity change, negative = cytotoxicity” value is inactive: -1.05%.

For `COc1cccc(N2CCN(C(=O)c3cnc4c(C)cccn4c3=O)CC2)c1`, the “activity change, negative = cytotoxicity” value was inactive: -10.9%.

On to `CCCNC(=O)CCn1nc(-c2ccc(C)cc2)c2ccccc2c1=O`, for which the “activity change, negative = cytotoxicity” value was inactive: -17.6%.

Regarding `COc1ccc(-c2nc(SCC(=O)NCC3CCCO3)c(-c3ccc(Cl)cc3)[nH]2)cc1` (stereo not drawn), the “activity change, negative = cytotoxicity” value is inactive: -1.91%.

For `Cc1c(Cl)ccc2sc(NC(=O)c3ccc(S(=O)(=O)N4CCCC4)cc3)nc12`, the “activity change, negative = cytotoxicity” value is inactive: 8.25%.

As for `Cc1ccc2ncc(C(=O)Nc3cccc(C(F)(F)F)c3)c(=O)n2c1`, the “activity change, negative = cytotoxicity” value is inactive: 4.6%.

For the compound `COc1ccc(S(=O)(=O)N2CCC(c3nnc(-c4ccccc4C)o3)CC2)c(OC)c1`, the “activity change, negative = cytotoxicity” value was inactive: 4.68%.

Turning to `COc1cc(C(=O)Nc2cccc(OCc3cc(=O)n4c(C)csc4n3)c2)cc(OC)c1OC`, the “activity change, negative = cytotoxicity” value is inactive: 17.7%.

For the compound `Cc1nn2c(=O)cc(COC(=O)c3ccccc3NC(=O)C(C)C)nc2s1`, the “activity change, negative = cytotoxicity” value is inactive: 19.2%.

Regarding `COc1cccc(-n2cc(C(=O)Oc3ccc(F)cc3)c3ccccc3c2=O)c1`, the “activity change, negative = cytotoxicity” value is inactive: 5.78%.

On to `Cc1ccc(S(=O)(=O)c2c(Nc3ccccc3)sc(C(=O)c3ccc4c(c3)OCO4)c2N)cc1`, for which the “activity change, negative = cytotoxicity” value was inactive: 1.97%.

With `CCN(C(=O)c1cc(S(=O)(=O)N2CCOCC2)cn1C)c1ccc(OC)cc1`, the “activity change, negative = cytotoxicity” value was inactive: -0.301%.

Regarding `Cc1ccc(CN2C(=O)c3ccccc3S(=O)(=O)c3ccc(C(=O)OCC4CCCO4)cc32)cc1` (stereo not drawn), the “activity change, negative = cytotoxicity” value is inactive: 22.1%.

Regarding `CCCC(=O)Oc1c(Sc2ccc(Cl)cc2)c(C)nn1-c1ccccc1`, the “activity change, negative = cytotoxicity” value is inactive: -17%.

With `CCOc1nc(NC(=O)NS(=O)(=O)Oc2ccc(Cl)cc2)nc(-c2ccccc2)n1`, the “activity change, negative = cytotoxicity” value is inactive: -1.78%.

For `Cn1c(SCC(=O)Nc2ccc(F)cc2)nc2c([nH]c3ccccc32)c1=O`, the “activity change, negative = cytotoxicity” value was inactive: -10.3%.

For the compound `CN(C)C(=O)c1ccc2c(c1)N(CC(=O)NCc1ccc(F)cc1)C(=O)C1CCCCN21` (stereo not drawn), the “activity change, negative = cytotoxicity” value is inactive: 7.35%.

For the compound `COc1cccc(-c2cc(C(=O)NCc3ccccc3)[nH]n2)c1`, the “activity change, negative = cytotoxicity” value was inactive: -9.79%.

As to `COc1cc(OC)cc(-c2nnc(SCC(=O)N3CCC(C)CC3)o2)c1`, the “activity change, negative = cytotoxicity” value is inactive: 5.41%.

Take `COc1ccc(CCNC(=O)CCn2c(=O)c3ccccc3n(CC(=O)Nc3cccc(C)c3)c2=O)cc1OC`: the “activity change, negative = cytotoxicity” value was inactive: 7.63%.

`CC(=O)c1ccc(NC(=O)Cn2c(-n3nc(C)cc3C)nc(C)cc2=O)cc1`: the “activity change, negative = cytotoxicity” value was inactive: -4.16%.

For `Cc1ccc2c(c1)cc1c(=O)n(CC(=O)NCc3ccco3)nc(C)n12`, the “activity change, negative = cytotoxicity” value was inactive: 4.66%.

Take `Cc1cccn2c(=O)c3cc(C(=O)NCCc4ccc(S(N)(=O)=O)cc4)n(C)c3nc12`: the “activity change, negative = cytotoxicity” value is inactive: 13.5%.

In the case of `COc1ccc(OC)c(C2C(C(N)=O)=C(C)Nc3nc(-c4cccc(Cl)c4)nn32)c1` (stereo not drawn), the “activity change, negative = cytotoxicity” value was inactive: -19.8%.

For the compound `CC(C)(C)c1ccc(OCC(=O)N(Cc2ccco2)Cc2ccccc2F)cc1`, the “activity change, negative = cytotoxicity” value is inactive: -17.1%.

In the case of `CCc1ccccc1N1CC(c2nc3ccccc3n2CC(C)C)CC1=O` (stereo not drawn), the “activity change, negative = cytotoxicity” value was inactive: 22.7%.

As for `Cc1ccc(C)c(S(=O)(=O)c2nnn3c2nc(N2CCCC2)c2sccc23)c1`, the “activity change, negative = cytotoxicity” value is inactive: -10.6%.

With `O=C(Cn1ncc2c3ccccc3n(Cc3ccc(Cl)cc3)c2c1=O)NCCCc1ccccc1`, the “activity change, negative = cytotoxicity” value is inactive: -2.96%.

Regarding `CC(C)c1ccc(Nc2cc(C(=O)NCCc3ccccc3)c3ccccc3n2)cc1`, the “activity change, negative = cytotoxicity” value is inactive: -3.44%.

On to `CC(=O)Nc1ccc(-n2cc3c(c2-c2ccc(C)cc2)c(=O)n(C)c(=O)n3C)cc1`, for which the “activity change, negative = cytotoxicity” value was inactive: -19.8%.

As to `Cc1oc(-c2ccc(C(=O)Nc3ccc(F)cc3F)cc2)nc1COc1ccccc1`, the “activity change, negative = cytotoxicity” value is inactive: 2.77%.

With `CCCCN(CC)CCCn1cnc2c([nH]c3ccc(Cl)cc32)c1=O`, the “activity change, negative = cytotoxicity” value was inactive: -21.1%.

For `CCC(=O)Nc1ccccc1-c1nc2ccccc2n(C(CC)C(=O)Nc2cccc(C(C)=O)c2)c1=O` (stereo not drawn), the “activity change, negative = cytotoxicity” value was inactive: -4.56%.

Turning to `CCOc1ccc(CCNC(=O)CCc2cn(Cc3ccc(C)cc3)c3ccccc23)cc1`, the “activity change, negative = cytotoxicity” value was inactive: 1.17%.

As for `CCCCNC(=O)CCn1c(=O)c2ccccc2n(Cc2cc(C)ccc2C)c1=O`, the “activity change, negative = cytotoxicity” value was inactive: 16.4%.

For `COc1cccc(C2=NN(C(C)=O)C(c3cn(-c4ccccc4)nc3-c3cccs3)C2)c1` (stereo not drawn), the “activity change, negative = cytotoxicity” value is inactive: 1.48%.

With `CC(C)CCNC(=O)N1CCN(S(=O)(=O)c2ccc3c(ccn3C)c2)CC1`, the “activity change, negative = cytotoxicity” value is inactive: 1.42%.

As to `CCOC(=O)c1c(S(=O)(=O)N2CCCC(C(=O)Nc3cc(C)ccc3OC)C2)c(C)n(C)c1C` (stereo not drawn), the “activity change, negative = cytotoxicity” value is inactive: -3.95%.

On to `COc1ccc2[nH]cc(CCNC(=O)Nc3ccc(F)cc3)c2c1`, for which the “activity change, negative = cytotoxicity” value is inactive: -16.3%.

As for `CCCC(=O)Nc1nnc(SCc2cc(=O)c3cc(C)ccc3[nH]2)s1`, the “activity change, negative = cytotoxicity” value was inactive: -24%.

`CC(C)S(=O)(=O)c1oc(-c2ccc(F)cc2)nc1S(=O)(=O)c1ccc(F)cc1`: the Potency is active: 3.16 µM.

As for `Cc1cccc(OCC(=O)N(Cc2cccc(Cl)c2)Cc2ccco2)c1C`, the “activity change, negative = cytotoxicity” value is inactive: -8.41%.

As for `COc1ccc2cc(-c3cn4c(n3)sc3cc(F)ccc34)c(=O)oc2c1`, the “activity change, negative = cytotoxicity” value was inactive: 2.61%.

`COc1cccc(C(=O)NCC(c2ccc(N(C)C)cc2)N2CCOCC2)c1OC` (stereo not drawn): the “activity change, negative = cytotoxicity” value is inactive: -2.88%.

For `CCN(CC)C(=O)CSc1nnc2[nH]c(=O)cc(C)n12`, the “activity change, negative = cytotoxicity” value is inactive: 7.54%.

Turning to `CCOC(=O)N1CCc2c(sc(NCc3cccs3)c2C(=O)Nc2cc(OC)ccc2OC)C1`, the “activity change, negative = cytotoxicity” value is inactive: 2.62%.

On to `CC(C)c1ccc(Nc2cc(C(=O)NCc3cccs3)c3ccccc3n2)cc1`, for which the “activity change, negative = cytotoxicity” value was inactive: 14.1%.
